# Test results taken from article PMC4336329 (PLoS ONE, 2015).
# Hit rate of the full screen: of about 310,000 compounds, about 14,000 (4.5%) showed an effect of 50% or more. Effects have a minus sign here. This is one part of the list.
# Target: human ether-à-go-go-related gene (hERG) potassium channel (human, UniProt Q12809)
# Test: primary screen, population patch clamp on CHO cells stably expressing hERG
# 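Also: peak tail current of the secondary pulse compared with the same well before compound.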
# Sequence of human ether-à-go-go-related gene (hERG) potassium channel (Q12809 whole entry, looked up): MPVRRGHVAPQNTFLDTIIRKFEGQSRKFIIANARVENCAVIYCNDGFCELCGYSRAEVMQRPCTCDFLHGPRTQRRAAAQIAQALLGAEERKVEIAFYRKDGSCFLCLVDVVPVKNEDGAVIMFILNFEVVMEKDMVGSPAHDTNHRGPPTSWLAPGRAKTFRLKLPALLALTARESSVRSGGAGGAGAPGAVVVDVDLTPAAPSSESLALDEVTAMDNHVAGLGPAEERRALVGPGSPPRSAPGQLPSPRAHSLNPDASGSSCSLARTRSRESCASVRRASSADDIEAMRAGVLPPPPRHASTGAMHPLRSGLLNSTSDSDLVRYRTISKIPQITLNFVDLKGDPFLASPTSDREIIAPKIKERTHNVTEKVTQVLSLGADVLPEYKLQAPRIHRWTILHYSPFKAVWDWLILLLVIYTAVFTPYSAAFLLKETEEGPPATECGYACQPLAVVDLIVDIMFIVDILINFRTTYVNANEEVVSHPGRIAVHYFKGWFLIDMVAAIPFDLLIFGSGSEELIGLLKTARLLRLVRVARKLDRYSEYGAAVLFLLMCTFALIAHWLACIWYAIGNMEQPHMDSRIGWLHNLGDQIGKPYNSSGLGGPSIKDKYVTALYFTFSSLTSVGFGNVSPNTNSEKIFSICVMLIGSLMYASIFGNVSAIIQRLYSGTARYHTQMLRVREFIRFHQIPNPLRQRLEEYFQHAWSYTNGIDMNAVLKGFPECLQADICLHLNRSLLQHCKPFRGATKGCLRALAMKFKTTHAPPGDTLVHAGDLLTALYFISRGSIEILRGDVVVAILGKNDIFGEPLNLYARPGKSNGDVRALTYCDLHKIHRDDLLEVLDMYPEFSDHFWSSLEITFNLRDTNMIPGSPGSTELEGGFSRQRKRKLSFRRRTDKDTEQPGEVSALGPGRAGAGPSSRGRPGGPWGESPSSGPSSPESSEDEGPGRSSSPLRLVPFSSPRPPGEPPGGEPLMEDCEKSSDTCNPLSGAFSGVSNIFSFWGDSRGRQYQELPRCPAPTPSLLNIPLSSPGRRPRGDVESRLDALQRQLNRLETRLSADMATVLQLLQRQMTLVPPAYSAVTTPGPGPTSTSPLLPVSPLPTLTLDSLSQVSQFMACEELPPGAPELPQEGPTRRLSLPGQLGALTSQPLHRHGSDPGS
row,Structure (SMILES),"hERG current change (%, negative = inhibition) at 10uM [%]"
1,COc1cccc2cc(C(=O)NCCc3ccccc3)oc12,-20.1
2,O=C(NCCS(=O)(=O)N1CCN(c2ccccc2)CC1)C1CC(=O)N(c2ccccc2)C1 (stereo not drawn),18.9
3,CCOC(=O)c1c(NC(=O)c2ccco2)sc2c1CCCCC2,9.58
4,COc1ccc(CCNC(=O)c2ccc(NC3=NC4CS(=O)(=O)CC4S3)cc2)cc1OC (stereo not drawn),18.6
5,Cc1cc(NC(=O)c2ccco2)c(=O)n(Cc2cccc(C(F)(F)F)c2)c1,-1.86
6,C[C@@H](C(=O)NCc1ccco1)N1C(=O)N2CCc3c([nH]c4ccccc34)[C@@]2(C)C1=O,-22.8
7,CCc1cccc(Nc2cc(C)nc3nc(C)nn23)c1,-25.3
8,Cc1ccc(CN2CCN(/N=C\C=C\c3ccccc3)CC2)cc1,-72.2
9,Cc1ccc(C(=O)/C=C/Nc2cccc([N+](=O)[O-])c2)o1,-6.39
10,COC(=O)c1sccc1NC(=O)c1cc(-c2cc(C)ccc2C)nc2ccccc12,5.4
11,CCOC(=O)N1C=CC(C)=C[C@@H]2[C@@H](N3C(=O)c4ccccc4C3=O)C(=O)N21,-16.3
12,COc1ccc(NC(=O)c2sc3nc(C)cc(C)c3c2N)c(OC)c1,-6.2
13,c1ccc(CC2CCN(Cc3nc(-c4ccccc4)no3)CC2)cc1,-8.93
14,NC(=O)COC(=O)Cc1coc2cc3c(cc12)CCC3,12.9
15,O=C(NCc1cccnc1)C(=O)NCC1OCCCN1S(=O)(=O)c1ccc(F)cc1 (stereo not drawn),6.99
16,CCOc1ccc(C2CC(c3ccc(CC)cc3)Nc3nc(N)nn32)cc1 (stereo not drawn),1.96
17,Fc1cccc(F)c1-n1c(CN2CCCCC2)csc1=S,4.06
18,CC(C)(C)C(=O)Nc1nnc(-c2ccccc2)c(-c2ccccc2)n1,-6.96
19,Cn1c(=O)[nH]c2nnc(-c3ccc(Cl)c(Cl)c3)nc2c1=O,8.52

row,Structure (SMILES),"hERG current change (%, negative = inhibition) at 10uM [%]"
1,COc1ccccc1CNC(=O)/C=C/C(=O)O,8.64
2,CCOC(=O)C1(CCCc2ccccc2)CCN(C(=O)CCOC)CC1,-46.8
3,OC(CN1CCC(Cc2ccccc2)CC1)c1ccccc1 (stereo not drawn),-52.9
4,O=C(C1=C[C@H](c2ccccc2)C[C@H](OCCCCO)O1)N1CCN(Cc2ccccc2)CC1,-38.9
5,CN(C)C(=O)c1cc([N+](=O)[O-])ccc1O,22
6,CCCCNC(=S)Nc1ccc(Cl)cc1,3.01
7,Cn1c(=O)c2cc(S(=O)(=O)NCCC(=O)Nc3ccccc3F)ccc2n(C)c1=O,3.05
8,c1ccc(SCc2cc(-c3ccccc3)no2)cc1,21
9,C/C(=N\NC(=O)c1nn(C)c(C)c1Br)c1cccc(NC(=O)c2ccc(F)cc2)c1,-38.5
10,Cc1[nH][nH]c(=O)c1N=Nc1ccccc1,9.77
11,Cc1cc([N+](=O)[O-])nn1CCCC(=O)Nc1ccc2c(c1)OCO2,-5.95
12,CC(C)c1nc(SCC(=O)NCc2ccccc2)n[nH]1,2.8
13,CC(C)NC(=O)c1ccc(CNC(=O)OCC(F)(F)F)cc1,-0.534
14,Cc1cccc(CCN(C(=O)Cc2cccs2)C(C(=O)NC2CCCCC2)c2cccnc2)c1 (stereo not drawn),3.91
15,CN(CC(=O)Nc1ccccc1Br)C(=O)C1CCN(C(=O)c2ccc(Cl)cc2)CC1,-50.1
16,CSCC[C@H](NC(=O)OC(C)(C)C)C(=O)N1CCC(C(=O)N[C@@H](C)C(=O)NC(C)c2ccccc2)CC1 (stereo partly drawn),19.2
17,O=C(O)C1C2C=CC3(CN(C4CCCC4)C(=O)C13)O2 (stereo not drawn),1.48
18,CC(=O)Nc1cccc(-c2nc3ccc(NC(C)=O)cc3[nH]2)c1,7.37
19,O=C(NCCCN1CCOCC1)c1sc2cc(F)ccc2c1Cl,-44

row,Structure (SMILES),"hERG current change (%, negative = inhibition) at 10uM [%]"
1,CC(C)(C)n1nnnc1CN(Cc1ccco1)Cc1cc2cc3c(cc2[nH]c1=O)OCO3,3.98
2,COc1ccc(Cn2cnc3c(NS(C)(=O)=O)c(C)c(C)cc32)cc1,-4.46
3,Cc1cc(NC(=O)C(C)C)n(-c2nc3ccccc3s2)n1,18.5
4,CCc1ccc(-c2cc(C)no2)cc1S(=O)(=O)NCCc1ccccc1,2.38
5,COc1ccc(NC(=O)Cn2c(=O)c(C)nc3ccccc32)cc1Cl,-2.07
6,CCc1ccc(Nc2n[n+](-c3ccccc3)c(-c3cccc(Cl)c3Cl)s2)cc1.[Cl-],-1.43
7,COc1ccccc1CC(=O)O/N=C(\N)c1ccccn1,9.18
8,Nc1ccccc1N=Nc1ccccc1N,-2.45
9,Cc1cc(C)c(S(=O)(=O)c2ccccc2C)c(N(C)C)n1,4.75
10,CCOc1ccc(NC(=O)CN(C)C(=O)CCNC(=O)c2ccc(Br)cc2)cc1OCC,-34.2
11,CC(=O)Nc1ccc(S(=O)(=O)NCC(=O)OCC(=O)Nc2sccc2C(N)=O)cc1,9.15
12,Cc1cc(C)nc(CCNC(=O)c2cc(COc3c(C)cccc3C)on2)n1,-12.7
13,CCOC(=O)COc1ccc(C2NC(C(=O)O)CS2)cc1 (stereo not drawn),20.3
14,CC(Oc1ccc(Cl)cc1)c1ccn[nH]1 (stereo not drawn),20.9
15,CO/N=C(/c1nonc1N)N1CCN(c2ccc([N+](=O)[O-])cc2)CC1,-11.5
16,CN(Cc1cnn(C)c1)C(=O)c1cc2ccccc2oc1=O,-0.0112
17,CC1CCCCC1NC(=O)COc1ccccc1C#N (stereo not drawn),-1.85
18,CC1=C(C)CC(C(=O)N2CCN(C/C=C/c3ccccc3)CC2)C(C(=O)O)C1 (stereo not drawn),8.99
19,C=C1C(=O)[C@@]23C[C@H]4[C@@H]5[C@@]6(C)CCC[C@@]57[C@@H]2[C@@H](O)[C@@H]1C[C@H]3[C@H]7N4C6,14.7
